The text below walks through data of PMC10465699, “Interaction patterns of methoprene-tolerant and germ cell-expressed Drosophila JH receptors suggest significant differences in their functioning” (Frontiers in Molecular Biosciences, 2023).

The chains behind the UniProt entries cited, without tags or fusion partners.
UniProt P63104: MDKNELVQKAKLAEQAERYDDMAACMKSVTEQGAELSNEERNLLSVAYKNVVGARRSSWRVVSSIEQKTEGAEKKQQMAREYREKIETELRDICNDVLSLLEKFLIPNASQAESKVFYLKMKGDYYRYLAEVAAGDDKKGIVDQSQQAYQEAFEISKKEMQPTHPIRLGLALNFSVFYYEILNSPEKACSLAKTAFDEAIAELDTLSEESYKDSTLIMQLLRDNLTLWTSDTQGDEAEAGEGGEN

These are yes or no findings as the source states them, for the method shown. For part of these data: Binding seen in cells or lysates may run through a third protein. Some results given as binding are weak or reduced against the parent protein; the word gives no strength. For part of these data: Sequences can lack the tags named with a protein.

In assay [1] the target is T1, Methoprene-tolerant C-terminus (MetC, 509-716 aa) (D. melanogaster) (UniProt Q9VYW2).
T1 sequence: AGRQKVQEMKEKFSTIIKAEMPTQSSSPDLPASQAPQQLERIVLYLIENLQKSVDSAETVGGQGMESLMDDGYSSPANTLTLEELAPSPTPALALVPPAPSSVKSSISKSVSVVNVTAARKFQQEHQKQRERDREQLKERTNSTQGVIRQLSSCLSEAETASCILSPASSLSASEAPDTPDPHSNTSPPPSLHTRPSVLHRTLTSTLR
Kind of assay: NMR titration; 15N-HSQC of 15N-MetC without and with an equimolar concentration of 14-3-3; 20 mM Bis-Tris pH 6.5, 150 mM NaCl, 5 mM bME; 18 C; both purified.

For assay [2], the target named is T2, YFP-GceC-FLAG (D. melanogaster) (UniProt Q9VXW7).
T2 sequence: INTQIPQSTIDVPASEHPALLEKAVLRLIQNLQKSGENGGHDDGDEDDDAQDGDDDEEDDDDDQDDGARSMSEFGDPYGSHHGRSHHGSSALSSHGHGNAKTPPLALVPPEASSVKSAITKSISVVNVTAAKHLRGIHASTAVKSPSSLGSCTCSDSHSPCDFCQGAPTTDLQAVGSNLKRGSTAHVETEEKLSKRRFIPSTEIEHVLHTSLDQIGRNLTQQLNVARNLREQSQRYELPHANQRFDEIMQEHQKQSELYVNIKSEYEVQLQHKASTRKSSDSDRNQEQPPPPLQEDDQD
The assay is described as follows: co-IP; COS-7 cells co-transfected with a YFP-/FLAG-tagged protein and CFP-14-3-3; lysis buffer with phosphatase inhibitors; lysate on ANTI-FLAG M2 Affinity Gel, elution with FLAG peptide, Western blot with anti-GFP or anti-14-3-3; no JH. (In western blotting, separated proteins are transferred to a membrane and probed.)

Assay [3] has as its target T3, YFP-MetC-FLAG (D. melanogaster) (UniProt Q9VYW2).
T3 sequence: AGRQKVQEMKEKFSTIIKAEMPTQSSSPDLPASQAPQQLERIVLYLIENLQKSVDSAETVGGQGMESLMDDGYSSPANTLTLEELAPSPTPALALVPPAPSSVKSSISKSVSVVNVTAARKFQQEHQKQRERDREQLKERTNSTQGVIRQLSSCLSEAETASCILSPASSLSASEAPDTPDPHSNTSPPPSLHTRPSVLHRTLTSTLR
The assay is described as above.

Assay [4] deals with T4, Fushi tarazu factor-1 ligand-binding domain (Ftz-F1 LBD, 786-1027 aa) (D. melanogaster) (UniProt P33244).
T4 sequence: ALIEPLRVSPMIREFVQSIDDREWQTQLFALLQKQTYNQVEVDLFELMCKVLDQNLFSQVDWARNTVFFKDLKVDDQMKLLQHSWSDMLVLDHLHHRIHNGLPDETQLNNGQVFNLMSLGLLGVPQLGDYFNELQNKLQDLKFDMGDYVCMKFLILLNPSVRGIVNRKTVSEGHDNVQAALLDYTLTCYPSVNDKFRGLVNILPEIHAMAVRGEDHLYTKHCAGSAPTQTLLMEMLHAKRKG
The assay is described as follows: NMR titration; 15N-HSQC of 15N Ftz-F1 LBD with unlabelled peptide, equimolar, double equimolar and up to the solubility limit (approximately 3 mM Met^PEP, 2 mM Gce^PEP); 20 mM sodium phosphate pH 6.8, 50 mM NaCl, 1 mM TCEP, 0.5 mM EDTA; 29 C; both purified.

Assay [5] concerns the target T3, YFP-MetC-FLAG (D. melanogaster). The assay is described as follows: co-IP; COS-7 cells co-transfected with a YFP-/FLAG-tagged protein and CFP-Ftz-F1 LBD; lysate on ANTI-FLAG M2 Affinity Gel, elution with FLAG peptide, Western blot with anti-GFP; no JH.

“14-3-3 human isoform zeta, full length (from UniProt P63104 1-245)”: the binding result in assay [1] is listed as “no binding (tested: equimolar concentration of 14-3-3)”.

Regarding “CFP-14-3-3 (human isoform zeta) (from UniProt P63104 1-245)”, the binding entry is reported as “binds” in assay [2] and “no binding” in assay [3].

B1: Gce^PEP, 19-residue peptide of the novel NR-box of GceC (peptide)
peptide: LEKAVLRLIQNLQKSGENG
In the case of B1, the binding entry in assay [4] is “binds weakly”.

B2: Met^PEP, 19-residue peptide of the novel NR-box of MetC (peptide)
peptide: LERIVLYLIENLQKSVDSA
notes: 19-residue peptide representing the novel NR-box in the C-terminus of Met, D. melanogaster, UniProt Q9VYW2; also called MetC^PEP; source: synthetic peptide (PSL GmbH, Heidelberg)
As for B2, the binding entry in assay [4] is listed as “binds weakly”.

B3: Fushi tarazu factor-1 ligand-binding domain (Ftz-F1 LBD, 786-1027 aa) (domain or fragment, D. melanogaster, UniProt P33244 786-1027, looked up)
chain: ALIEPLRVSPMIREFVQSIDDREWQTQLFALLQKQTYNQVEVDLFELMCKVLDQNLFSQVDWARNTVFFKDLKVDDQMKLLQHSWSDMLVLDHLHHRIHNGLPDETQLNNGQVFNLMSLGLLGVPQLGDYFNELQNKLQDLKFDMGDYVCMKFLILLNPSVRGIVNRKTVSEGHDNVQAALLDYTLTCYPSVNDKFRGLVNILPEIHAMAVRGEDHLYTKHCAGSAPTQTLLMEMLHAKRKG
notes: 15N- or 13C,15N-labelled where it was the observed protein in NMR, unlabelled otherwise; also called LBD Ftz-F1; source: E. coli BL21(DE3), purified (Ni-NTA, thrombin digestion, SEC); not shown: His6, N-terminal, cleaved
For the molecule B3, the binding result in assay [5] is “binds”.
